Laboratory results taken from PubChem BioAssay AID485344 (National Center for Advancing Translational Sciences (NCATS), 2010).
Hit rate of the full screen: of about 340,000 compounds, about 6,900 (2%) were called active. No stated cut-off is given here; in the data, active means inhibition above about 30%; inactive means below that, where a call was filed. Only a part is listed here, and it is no random draw. The source gives no active or inactive call for entries shown without one.

Target: D(2) dopamine receptor (Homo sapiens) (UniProt P14416)
Chain of UniProt P14416 (P14416 whole entry, looked up): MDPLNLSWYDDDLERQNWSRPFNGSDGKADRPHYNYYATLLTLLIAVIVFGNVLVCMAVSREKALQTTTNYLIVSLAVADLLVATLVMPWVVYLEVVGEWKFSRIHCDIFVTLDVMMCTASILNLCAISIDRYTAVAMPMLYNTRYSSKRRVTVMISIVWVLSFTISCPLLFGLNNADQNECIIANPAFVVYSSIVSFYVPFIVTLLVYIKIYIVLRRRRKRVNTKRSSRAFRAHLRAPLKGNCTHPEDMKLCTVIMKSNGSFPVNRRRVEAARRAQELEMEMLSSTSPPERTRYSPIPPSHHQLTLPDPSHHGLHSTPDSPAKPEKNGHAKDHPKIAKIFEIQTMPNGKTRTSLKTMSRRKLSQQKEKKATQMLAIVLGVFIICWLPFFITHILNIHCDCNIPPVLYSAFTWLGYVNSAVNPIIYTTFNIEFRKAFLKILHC
Experiment: HTS Assay for Allosteric Antagonists of the Human D2 Dopamine Receptor: Primary Screen for Antagonists; further: 0% is about no effect
Details: HEK293 TREx D2 cells, calcium flux, dopamine EC80; at 10 µM; stronger effect = higher value
Outline: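 Cells plated overnight at 30 C with tetracycline; no-wash calcium dye, 30–90 min RT; 10 s baseline; compound pinned; 180 s read; EC80 dopamine added; another 180 s read.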

| Structure (SMILES) | inhibition |
| --- | --- |
| COc1ccc(NC(=O)c2oc3c(c2C)-c2nn(Cc4ccccc4Cl)cc2CC3)cc1OC | -4.64% |
| C=Cc1ccc(CSc2nnc(C)n3c2cc2occc23)cc1 | 8.1% |
| Cc1c(C(=O)Nc2ccc(F)c(F)c2)oc2ccc(S(=O)(=O)N(C)C3CCCCC3)cc12 | 3.82% |
| CCOC(=O)c1ccc(NC(=O)C(C)N(c2ccc(OCC)cc2)S(C)(=O)=O)cc1 (stereo unspecified) | -2.73% |
| COc1ccc(CNC(=O)c2cc3c(=O)n4cccc(C)c4nc3s2)cc1 | 5.33% |
| O=C(Nc1cc2ccc(O)cc2oc1=O)c1ccc(F)cc1 | 10.3% |
| CCOC(=O)c1[nH]c(C)c(CCC(=O)NC(C)c2ccccc2)c1C (stereo unspecified) | 15.1% |
| Cc1cccc(CNC(=O)Cc2ccc(NC(=O)N3CCCCc4ccccc43)cc2)c1 | 8.5% |
| CCOc1ccc(-c2cn3c(n2)sc2cc(C(=O)NCCCN(CC)CC)ccc23)cc1 | 10.2% |
| COc1ccc(CCNC(=O)CCCCn2c(=O)c3ccccc3n(Cc3ccc(Cl)cc3)c2=O)cc1OC | -9.44% |
| Cc1ccc(N(C)C(=O)Cn2cc(S(=O)(=O)N3CCCC3)c(S(=O)(=O)N3CCCC3)c2)cc1 | 7.71% |
| CCOC(=O)c1cc(-c2ccccc2)n(CCC(=O)Nc2ccc(C)cc2Cl)c1C | -18.7% |
| COc1ccc(OC)c(S(=O)(=O)N2Cc3ccccc3CC2C(=O)Nc2ccc(Cl)cc2)c1 (stereo unspecified) | 25% |
| Cc1ccc2c(c1)C(=O)C(=O)N2Cc1ccc(OC(C)C)cc1 | -0.08% |
| CCOc1ccc(-c2nn(-c3ccccc3)cc2C2NC(=O)NC(C)=C2C(=O)OC(C)C)cc1C (stereo unspecified) | -17.2% |
| Cc1ccc(-n2nc(CO)c(C(=O)NCCCCc3ccccc3)n2)cc1 | 19.2% |
| Cc1ccc(C(=O)N2CCC(N3CCN(Cc4ccc(F)cc4)C(=O)C3=O)CC2)cc1 | 7.24% |
| O=C1C(c2ccc(F)cc2)N(Cc2ccccc2Cl)C(=O)CN1C1CCCCC1 (stereo unspecified) | 11.9% |
| Cc1ccc2c(c1)CC(C)N2S(=O)(=O)c1nnc(NC(=O)c2ccccc2F)s1 (stereo unspecified) | 28.1% |
| O=C(C1COc2ccccc2O1)N1CCCCC1 (stereo unspecified) | active: 51.3% |
| CCOc1ccc(CNC(=O)c2[nH]c3ccccc3c2Sc2ccc(C)cc2)cc1 | 2.07% |

| Structure (SMILES) | inhibition |
| --- | --- |
| Cc1ccc(NC(=O)CCS(=O)(=O)c2ccc(Br)cc2)c(C)c1 | 14.4% |
| Cc1ccc(S(=O)(=O)CCC(=O)OCC(=O)N2c3ccccc3NC(=O)C2(C)C)cc1 | active: 89.9% |
| COC(=O)c1ccc2c(c1)N(CC(=O)Nc1cccc(C(F)(F)F)c1)C(=O)c1ccccc1S2 | -3.36% |
| COc1ccc(NC(=O)C2CCCN(S(=O)(=O)c3ccc4c(c3)CCCN4C(C)=O)C2)cc1 (stereo unspecified) | -4.58% |
| O=C(CN(CCc1ccccc1)S(=O)(=O)c1ccccc1)NCc1ccc(Cl)cc1 | 4.84% |
| COc1cc(CNc2ccc3c(c2)ncn3C(C)C)cc(OC)c1OC | -0.837% |
| Cc1cc(Cl)ccc1Nc1ncnc2onc(C)c12 | -6.84% |
| Cc1ccc(Cl)cc1N1CCN(C(=O)c2cc(S(=O)(=O)N3CCCCCC3)cn2C)CC1 | -18.9% |
| Fc1ccccc1OCc1nc(-c2ccc(-n3cccc3)cc2)no1 | -0.293% |
| COc1cccc(NC(=O)CSCn2nnc3c(=O)[nH]c(Cc4ccc(F)cc4)nc32)c1 | 17.2% |
| O=C(Nc1ccccc1Cl)C1CCN(c2nc3ccccc3[nH]2)CC1 | 0.297% |
| CN(Cc1ccc(F)cc1)S(=O)(=O)c1nnc(NC(=O)c2ccc(F)cc2)s1 | 7.31% |
| COc1ccc(NC(=O)CSc2c3c(nc4ccccc24)CCC3)c(OC)c1 | -15.4% |
| CC(=O)c1cccc(CN2CCN(CCc3ccccc3)C(CCO)C2)c1 (stereo unspecified) | active: 34.3% |
| COc1ccc(N2CCN(C(=O)CN(C)S(=O)(=O)c3cccs3)CC2)cc1 | 7.82% |
| COc1ccc(Cn2ccnc2SCC(=O)Nc2cc(C(F)(F)F)ccc2Cl)cc1 | 6.45% |
| COc1cccc(Nc2sc(C(=O)c3ccc(F)cc3)c(N)c2C(=O)NCc2ccc(C)cc2)c1 | 21.1% |
| CC(NC(=O)c1cccc(S(=O)(=O)N2CCN(Cc3ccccc3)CC2)c1)c1ccc(Cl)cc1 (stereo unspecified) | active: 35.8% |
| COc1ccc(-c2cn3nc(N4CCCC(C(=O)NCc5ccccc5C)C4)sc3n2)cc1 (stereo unspecified) | 1.59% |
| CCOC(=O)c1ccccc1NC(=O)c1sc2ccccc2c1Cl | -9.75% |
| CCN(CC)C(=O)Cn1c(=O)cc(C)c2c(C)nn(C)c21 | 7.31% |

| Structure (SMILES) | inhibition |
| --- | --- |
| Cc1c(C(=O)N2CCCCCC2)nnn1-c1nonc1N | active: 40.8% |
| Cc1ccccc1-n1c(=O)c2c3c(sc2n2cnnc12)CCCC3 | 7.53% |
| COc1ccc(CNC(=O)C2CCN(c3nnc(-n4cccc4CNc4ccc(C)cc4)s3)CC2)c(OC)c1 | 1.74% |
| O=S(=O)(Nc1cccc(-c2ccc(N3CCCC3)nn2)c1)c1ccc(F)cc1F | -1.81% |
| O=S(=O)(c1ccc(F)cc1)N1CCC(n2c(C(F)(F)F)nc3cccnc32)CC1 | -3.71% |
| Cc1ccc(S(=O)(=O)c2nc(-c3cccc(C)c3)oc2N2CCCCC2)cc1 | 9.52% |
| O=C(CCN1CCCCC1)Nc1cccc(Br)c1 | active: 54.8% |
| Cc1cccc(C)c1OCC1CNC(=O)O1 (stereo unspecified) | active: 36.1% |
| Cc1cc(-c2ccc(C)c(S(=O)(=O)N(C)c3ccc(C)c(C)c3)c2)on1 | 5.02% |
| COc1ccccc1NC(=O)Cn1c(=O)n(Cc2ccco2)c(=O)c2cccnc21 | -2.27% |
| CCOC(=O)c1c(Oc2ccc(OC)cc2)nnc(-c2ccccc2)c1-c1ccccc1 | 19.9% |
| COc1ccc(N(Cc2cccs2)C(=O)Nc2ccccc2)cc1 | 5.21% |
| COc1ccc(OC)c(NC(=O)CN2C(=O)c3ccccc3Sc3ccc(C(=O)N4CCCC4)cc32)c1 | 6.1% |
| Cc1cc(C)c2c(=O)cc(CSc3nnc(COc4ccccc4C)n3C)[nH]c2c1 | -6.02% |
| COc1ccccc1-c1cc(C(F)(F)F)nc(S(=O)(=O)CCCC(=O)Nc2cc(OC)c(OC)c(OC)c2)n1 | 10.3% |
| COc1ccc(CC(=O)NCc2ccc3c(c2)CCN3C(=O)c2ccc(Cl)cc2)cc1OC | 5.4% |
| O=c1cc(-c2ccccc2)c2cc(Cl)c3c(c2o1)CN(Cc1ccccc1)CO3 | 19.3% |
| CCOC(=O)c1ccc(N2C(=O)c3n[nH]c(-c4cccs4)c3C2c2ccc(C(C)C)cc2)cc1 (stereo unspecified) | -0.323% |
| Cc1ccc2c(c1)c1c(c(=O)n(-c3ccccc3C)c(=O)n1CC(=O)NCc1ccccc1)n2C | 7.63% |
